Experimental data taken from the supplement of paper PMC12217912.
Some of the results follow. The full chains were built here from the parent and the listed change. Inactive controls read about 0.05.

B1: TEV protease; numbered along this chain (parent)
chain: MGESLFKGPRDYNPISSSICHLTNESDGHTTSLYGIGFGPFIITNKHLFRRNNGTLVVQSLHGVFKVKDTTTLQQHLVDGRDMIIIRMPKDFPPFPQKLKFREPQREERICLVTTNFQTKSMSSMVSDTSCTFPSGDGIFWKHWIQTKDGQCGSPLVSTRDGFIVGIHSASNFTNTNNYFTSVPKNFMELLTNQEAQQWVSGWRLNADSVLWGGHKVFMVKPEEPFQPVKEATQL

Variants of: B1
Test: raw area under fraction-flipped curve 0-4 h after induction (AUC4h, not background-subtracted), DNA-recorder readout of cleavage of the substrate (dimensionless); higher = more cleavage of the substrate by the protease variant
Settings: temperature: 34 °C; time window: 0-4 h after rhamnose induction
Method: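 In vivo DNA recorder in E. coli TOP10(DE3) ΔrhaA at 34 °C. Each TEVp single-site mutant (parent TEVp 0) is paired with a single-site variant of the 7-mer TEVs (canonical ENLYFQ|S). The substrate sits between flexible linkers in a Bxb1-sfGFP-TEVs-SsrA fusion, so cleavage stabilises Bxb1 and speeds flipping of a recombination array, read by NGS. The value is the raw area under the fraction-flipped curve over 0-4 h after rhamnose induction (AUC4h), with ≥20 reads per time point. It is not background-subtracted; inactive controls average about 0.047.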
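Also: Bxb1 expression induced with 0.2% (w/v) L-rhamnose at OD600 near 0.5, cultures sampled hourly, flipped fraction per protease–substrate barcode pair counted by paired-end Illumina sequencing.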

Variant | area with substrate CNLYFQS | area with substrate DNLYFQS | area with substrate FNLYFQS | area with substrate GNLYFQS | area with substrate HNLYFQS | area with substrate KNLYFQS | area with substrate LNLYFQS | area with substrate MNLYFQS | area with substrate NNLYFQS | area with substrate PNLYFQS | area with substrate SNLYFQS | area with substrate WNLYFQS | area with substrate YNLYFQS | area with substrate RNLYFQS | area with substrate TNLYFQS | area with substrate INLYFQS | area with substrate QNLYFQS | area with substrate VNLYFQS
Y12Q | 0.0677 | 0.103 | 0.0596 | 0.076 | 0.0594 | 0.0744 | 0.0722 | 0.0682 | 0.0748 | 0.0671 | 0.0704 | 0.058 | 0.0619 |  |  |  |  | 
S32T | 0.0675 | 0.0802 | 0.0641 | 0.0714 | 0.062 |  | 0.0731 | 0.0052 |  | 0.0663 |  | 0.0665 | 0.0522 | 0.0754 | 0.0669 |  |  | 
S32F | 0.0762 | 0.0545 | 0.054 | 0.0736 | 0.0621 | 0.068 | 0.0652 | 0.0527 | 0.0677 |  | 0.075 | 0.0569 | 0.0416 |  | 0.0603 | 0.0561 |  | 
S32V | 0.0629 |  | 0.0654 | 0.0642 | 0.0564 | 0.0523 | 0.0912 | 0.0735 | 0.0685 |  | 0.0592 | 0.0576 | 0.0639 | 0.0533 | 0.0658 | 0.0638 | 0.0302 | 0.069
S32K | 0.0502 | 0.0714 | 0.0652 |  |  |  |  | 0.0807 |  |  |  |  | 0.0525 | 0.0607 |  | 0.0488 |  | 
S32C | 0.0613 | 0.0829 | 0.0895 |  | 0.0729 |  | 0.0468 | 0.0616 | 0.0769 | 0.0694 | 0.0806 | 0.055 |  | 0.0712 | 0.0657 | 0.0601 |  | 
L61C | 0.0611 | 0.0766 | 0.068 | 0.0688 | 0.084 | 0.0678 | 0.0707 | 0.0696 | 0.0574 | 0.0726 | 0.0717 | 0.0645 | 0.0705 |  | 0.0621 | 0.065 | 0.072 | 0.0465
F41D | 0.0569 | 0.0502 | 0.0499 |  | 0.0287 | 0.0509 | 0.0571 | 0.0548 |  | 0.0672 | 0.0508 | 0.0556 | 0.0469 | 0.0471 | 0.0459 |  |  | 
S17C | 0.0663 | 0.0795 | 0.0521 | 0.075 | 0.0512 | 0.0686 | 0.0685 | 0.0618 |  | 0.0721 | 0.0501 | 0.0643 | 0.0715 |  | 0.064 | 0.0552 |  | 
S17G | 0.0602 | 0.0716 | 0.072 | 0.0948 | 0.0651 | 0.0724 | 0.0618 | 0.0789 | 0.0648 | 0.0655 | 0.0714 | 0.0597 | 0.0631 |  | 0.0676 | 0.07 |  | 0.0714
T44R | 0.0567 | 0.0418 | 0.0471 | 0.0466 | 0.0465 | 0.0511 | 0.0477 | 0.0513 | 0.0369 | 0.0328 |  | 0.0369 | 0.0428 |  | 0.0476 |  | 0.0495 | 0.051
P40M | 0.0616 |  | 0.09 |  | 0.0613 |  | 0.0622 |  |  |  | 0.0686 | 0.0593 |  | 0.0389 |  |  | 0.0621 | 
P40W | 0.0597 |  | 0.0634 |  | 0.0583 |  |  | 0.0672 | 0.0553 |  | 0.0636 | 0.0472 | 0.0668 |  |  |  |  | 
N52G | 0.0691 | 0.0574 | 0.0589 | 0.0512 | 0.0505 | 0.062 | 0.0542 |  | 0.0603 | 0.0675 | 0.0601 | 0.053 | 0.053 | 0.048 | 0.061 | 0.0551 | 0.0739 | 0.057
L56F | 0.0444 | 0.0722 | 0.0511 |  | 0.0708 | 0.071 | 0.0663 | 0.0632 | 0.0643 | 0.0646 | 0.0654 | 0.0563 | 0.0582 |  | 0.0602 | 0.0579 |  | 0.0625
L56K | 0.0466 | 0.0609 |  |  | 0.0707 |  | 0.0599 | 0.0447 |  | 0.0492 |  | 0.0378 | 0.0478 |  | 0.0341 |  |  | 
L56H | 0.0286 |  | 0.058 |  | 0.0402 | 0.0462 | 0.0555 | 0.0251 |  |  | 0.0498 | 0.0624 |  |  | 0.0516 | 0.0562 |  | 
L56R | 0.0466 | 0.044 | 0.0435 |  | 0.0504 | 0.0584 |  |  |  |  |  |  | 0.0506 |  | 0.0493 | 0.0475 | 0.049 | 0.047
G63W | 0.0658 | 0.0748 | 0.0594 | 0.0689 | 0.0586 | 0.0725 | 0.0638 | 0.0717 | 0.0655 | 0.0646 | 0.0646 | 0.0554 |  |  | 0.0593 | 0.0618 | 0.0699 | 
H21F | 0.0699 | 0.0663 |  | 0.0596 | 0.0619 | 0.0609 | 0.0572 | 0.0702 | 0.0493 | 0.071 | 0.0633 | 0.0496 | 0.0561 |  | 0.0678 | 0.0647 |  | 
H21I | 0.0758 | 0.055 | 0.0548 | 0.0535 | 0.057 |  | 0.0906 | 0.0583 | 0.056 |  |  | 0.0596 | 0.0674 |  | 0.0648 |  | 0.0647 | 0.0577
H21E | 0.0517 | 0.064 | 0.062 | 0.0659 | 0.0609 | 0.058 | 0.0866 | 0.072 | 0.0525 | 0.0618 | 0.081 | 0.0605 | 0.061 | 0.0419 | 0.0547 | 0.0675 |  | 0.0404
H21T | 0.0553 | 0.0786 | 0.0668 | 0.0669 | 0.061 | 0.0599 | 0.0629 | 0.0569 | 0.0614 | 0.0687 | 0.0483 | 0.0551 | 0.0622 | 0.058 | 0.063 | 0.0795 |  | 0.0714
N45Y | 0.0576 | 0.0312 | 0.0619 | 0.0611 | 0.0577 | 0.0645 |  | 0.0548 | 0.0629 | 0.0585 | 0.0657 | 0.0583 | 0.0594 |  | 0.0496 | 0.0133 | 0.0582 | 
N45W | 0.0549 | 0.0601 |  | 0.0647 | 0.0575 | 0.0148 | 0.0923 | 0.0309 | 0.051 | 0.058 | 0.058 | 0.0588 | 0.0568 | 0.0678 | 0.056 | 0.0534 |  | 0.0548
G37Q | 0.0607 | 0.0477 | 0.0618 | 0.0571 | 0.0599 | 0.0596 |  |  | 0.0557 | 0.0578 | 0.0626 | 0.0483 |  |  | 0.0509 | 0.0536 |  | 0.0499
